Results: the RNAGym collection of RNA variant scans (doi:10.7554/elife.90254)
The source gives no read counts; variants with many changes may rest on few reads.

B1: LINE1-mini (parent)
chain: GGCAGAGCUCAACACAGCGUGGCAAAGUGGCUGUGGCUAGACUGCC

Variants of: B1
Assay: self-cleavage, relative activity (ratio to wild type); higher = more cleavage; in vitro, sequencing; the parent is a self-cleaving ribozyme

| Variant | self-cleavage |
| --- | --- |
| C18G G19U G40U U43A | 0.01 |
| C10U G21C A26U A41U | 0.04 |
| A4U G5U A12C G33U U43C | 0.01 |
| A4G C23U C31U | 0.13 |
| G30U C37U C42U G44U C45G | 0.08 |
| G5U C13U G35A C37A U38G | 0.02 |
| G22A A24U C31A U32C G35U G40U G44U | 0.04 |
| G17C G19U A26C G27U C42U | 0.05 |
| U9A A12C C42G C45U C46A | 0 |
| A4C U20A C42G | 0.08 |
| A6G C13A G29U A39C C45G | 0.08 |
| C3U G21C A39C | 0.06 |
| A4C A41U C45U | 0.08 |
| C3U A12U U32C U34G | 0 |
| C15U G21U A24G A39G | 0 |
| C10A G17A U32C | 0 |
| C8G G27U U34A | 0.02 |
| C13U G30C G36A | 0.09 |
| G7A C8U G27C C45U | 0.15 |
| G5U A16G G44A | 0.02 |
| A11U C15G C23U C46G | 0.01 |
| U9C C23U A41C | 0.02 |
| G5C A12U C23U A24G | 0.01 |
| G5A G7A G27A C31G | 0.06 |

| Variant | self-cleavage |
| --- | --- |
| C8G G27C C31A C37U | 0.02 |
| A4G G7U G30U G35U G40C | 0.12 |
| G1U G22C G36A A39U | 0.03 |
| C3G A4U C13G A16U C37U | 0.07 |
| A4C G22A A39C G40C | 0.02 |
| G2C A14C G22A | 0.04 |
| G7C C10A A14U | 0.03 |
| C3G A4U G21U G33C G36U G40C | 0.05 |
| A24U G29U U34C | 0.08 |
| G1U G2C C15A U38G | 0.04 |
| A6C G21A U34A G40A | 0.04 |
| C10U A11U U28G | 0.26 |
| G19A U20C G44C | 0.19 |
| G17C A25G G29U | 0.04 |
| C31A G44U C45G | 0.03 |
| C8A G21U A39G G40C C42U C46A | 0.1 |
| G5A G7U A12G A24U A39C A41C | 0.07 |
| C3U A4G C8G C23U | 0.06 |
| C15U G19C G35A | 0.13 |
| A16C A24U A39C | 0.04 |
| G21U A25G G33C G36U U38C | 0.02 |
| A4C U9G U32C | 0.19 |
| C15G G17U U38G | 0.03 |
| A6U G30A U32A | 0.17 |

| Variant | self-cleavage |
| --- | --- |
| A6U G7C C8A | 0.43 |
| G1U G5U C15A G33A C37A | 0.06 |
| A4G A6G U20G G36U | 0.01 |
| A26U G27A G36A | 0.22 |
| G21U A24C C31G | 0.06 |
| C8U C10U C23G G27C G40A | 0.03 |
| A12G U20G G22A U28C U38C | 0.01 |
| G1A G2U C18U C23A G29A C31G G36C C42U | 0.14 |
| G7A C13U A25C G40C | 0.11 |
| G7A C18U C42A | 0.05 |
| C8U A11C A26U | 0.01 |
| A6G C13G A16G G21U G27A G29U | 0.01 |
| G7U U28G C46A | 0.02 |
| G5A A11G G21U A24U | 0 |
| C10A C18A A24G | 0.05 |
| C10A A24U A25G | 0.02 |
| G2A G5U C13U C46A | 0.1 |
| A12C C15G G21C C23G G44A | 0.04 |
| A12G A14G U20C C23U | 0.01 |
| G1A G30A U38G | 0.04 |
| C10U C23A U34A | 0.04 |
| G7U A12G C18G C23G A24C G27C U28A C45G | 0.01 |
| G2A A11U A25U G33A C42A | 0.04 |
| C3A A14U G27A | 0.13 |

| Variant | self-cleavage |
| --- | --- |
| G5C C8A G21A | 0.33 |
| A26G G30U U32G A39C | 0.03 |
| G7U G33A C37A | 0.07 |
| G17A U20C C37U G40U | 0.09 |
| C8U C18U G40U G44C | 0.15 |
| G5A A11C U43A | 0.02 |
| A4U G7C A14G | 0.12 |
| C8U G22U A25U | 1.62 |
| G7A C13G C15U U34C C37A | 0.22 |
| G33U C37A G40C | 0.08 |
| G7A A14U C23A | 0.16 |
| G5U A14U G19C G30C | 0.08 |
| A12U G35C A39C G44A | 0.01 |
| A26G C37U C46A | 0.07 |
| G2A U28G G30C | 0.07 |
| A11C C23A A24G G36A C46G | 0.01 |
| A11C A16G G27U | 0.01 |
| C3G A4G A6C G21U C23U | 0.14 |
| A14G C18A G40A | 0.03 |
| A4G G7U G27C G36U | 0.11 |
| C8U A16U G17U C46A | 0.39 |
| G22C U34G G36U A39G U43A | 0.02 |
| A4U C13U C31G U43A | 0.01 |
| C13A C18U G30A G35C G36U | 0.07 |

| Variant | self-cleavage |
| --- | --- |
| C13U G29C U38G U43C | 0 |
| C3G C8G A12U A14U U20G U32C | 0.06 |
| G1U G7C G17U | 0.01 |
| G1U G19C G40U | 0.02 |
| U28C G29A C31G | 0.06 |
| C3U C18G G33A C37U | 0.13 |
| G2C A4C C13A C23G | 0.05 |
| A24C C31A G35A | 0.16 |
| G2A C10G A12U G30U | 0.02 |
| A14G C15G G22C G29C U38A A41G C42A C45G | 0.01 |
| G1C C8G G33U | 0.02 |
| A4U G5A A16G G17C G19A A24C | 0.07 |
| A25G G27A U43A | 0.14 |
| C8G G19C G44A C46U | 0.02 |
| A4C A12C C45G | 0.01 |
| G19U G35U A41C | 0.02 |
| G7C A12C C18A G30C | 0.03 |
| G2A G17C G21U | 0.1 |
| C8A C10U A25G U28G | 0.03 |
| G2U G7A C8G A26C G36C | 0.15 |
| C15A U32G C46G | 0.23 |
| C23A U38C A39U A41G | 0.22 |
| G1C C8A A16C G33A G36C | 0.06 |
| G19C G21C C46A | 0.89 |

| Variant | self-cleavage |
| --- | --- |
| G19A A25U G36U | 0.06 |
| G21U G40C C42U | 0.02 |
| C15A A16G C23A C42G | 0.1 |
| A6G U9A G17C G21U G33A | 0.09 |
| G30U U32A U38A | 0.05 |
| G7A A16U G29U G36U | 0.14 |
| C3U A11G C13A A16G G17U G22A C23G U28G | 0.01 |
| C3A C8U A25G A26U G40A C46A | 0.26 |
| G7A U28A U38G G44C | 0.02 |
| G17U G19A U20G | 0.04 |
| C10A A14C A39C C46G | 0.01 |
| C3U A6G C15A C23A C46G | 0.17 |
| G1A G19A C23G G36C | 0.09 |
| G5C C18U G27C G29C U34G | 0.11 |
| C23A G35U C37G U43C C45A | 0.09 |
| G5U C15G C23A G27C C31A | 0.03 |
| G2U C23U A24G | 0.04 |
| C13A C18A G36A U43C | 0.04 |
| G1A C23U A26C | 0.18 |
| C15U A16U U20A G30C U32A | 0.1 |
| G1A G17A C23A G29U | 0.11 |
| A16C C18A G35C G36U | 0.03 |
| C8U A14U C15G G33A | 0.69 |
| A4C G17C G27C G29U | 0.06 |

| Variant | self-cleavage |
| --- | --- |
| U9C A24U C37G | 0.01 |
| C8G A11U G21U | 0.01 |
| U20C A26C G35C A39U U43G | 0.01 |
| G22A A25G C37A G44U C45G | 0.04 |
| G5C A14C C18A C45U | 0.04 |
| A26C G29A U38A | 0.17 |
| C3A A4G G19U G22C A25C | 0.34 |
| A16C G22U C31U G35U | 0 |
| G2C C15U C42A | 0.06 |
| U20G C31G G36U | 0.01 |
| C8G C10A C13A G21A A39U G44U | 0 |
| G22C G36U A41U | 0.06 |
| G7C A14G U20C G27A G29U | 0.02 |
| G2A U20G A26C C46G | 0.14 |
| C3U G5A G7C A12C | 0.05 |
| A16G U38A C46G | 0.37 |
| G2U A11G U32G G36U U43A | 0 |
| G1U G21U A24C | 0.21 |
| A11U C23U G36U C37A | 0 |
| A6G G17U U20A G27C | 0.05 |
| A4C A6U G19A C23A C31A | 0.01 |
| C18G G19A G27C G29A G35C | 0.04 |
| G5C G29C G44U | 0.12 |
